Measurements from US20250270339A1 (Alector, published 2025).

Target: T1, Cyno TfR ECD Avi-His (cynomolgus macaque, UniProt Q5RDH6 89-760 (Pongo abelii entry), biotin on the Avi tag (BirA) where captured on streptavidin)
T1 construct: also called Cyno TfR Avi-His; cyno TfR Avi-His
T1 chain: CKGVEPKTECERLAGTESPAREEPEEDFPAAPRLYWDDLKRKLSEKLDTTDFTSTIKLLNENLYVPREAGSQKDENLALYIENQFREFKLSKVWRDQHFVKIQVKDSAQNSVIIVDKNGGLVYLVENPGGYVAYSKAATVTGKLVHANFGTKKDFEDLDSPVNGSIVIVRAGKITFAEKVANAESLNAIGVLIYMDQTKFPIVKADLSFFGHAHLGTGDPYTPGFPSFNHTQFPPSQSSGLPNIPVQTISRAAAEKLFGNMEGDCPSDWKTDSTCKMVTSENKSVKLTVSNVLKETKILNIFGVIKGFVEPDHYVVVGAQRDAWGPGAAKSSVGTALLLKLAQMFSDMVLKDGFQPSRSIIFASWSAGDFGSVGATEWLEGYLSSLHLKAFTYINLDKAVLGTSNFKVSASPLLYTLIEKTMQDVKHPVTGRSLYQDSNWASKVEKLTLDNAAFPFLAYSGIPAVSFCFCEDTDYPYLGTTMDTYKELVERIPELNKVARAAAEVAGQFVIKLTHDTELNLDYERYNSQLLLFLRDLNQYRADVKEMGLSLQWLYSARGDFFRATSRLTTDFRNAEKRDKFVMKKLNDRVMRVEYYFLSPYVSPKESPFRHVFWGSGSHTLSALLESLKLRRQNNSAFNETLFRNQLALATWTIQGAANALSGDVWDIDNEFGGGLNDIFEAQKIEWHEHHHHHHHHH
Assay: SPR (Carterra LSA), 2+1 immobilised
Protocol: The remaining unconjugated active groups on the chip were then blocked by injecting 1M Ethanolamine pH 8.5 (Carterra) for 7 minutes using the single channel flow cell.
Estimates of affinity were generated by injecting each analyte over the entire antibody array using the single channel flow cell. […] Data were processed and analyzed using NextGenKIT high-throughput kinetics analysis software (Carterra).

B1: TfR9.1B 2+1 anti-TfR bispecific antibody (bispecific antibody, human IgG1, kappa)
heavy 1: EVRLLESGGGLVQPGGSLRLSCAASGFTFSNYAMGWVRQAPGKGLEWVSAISGSGGSTYYADSVKGRFTTSRDDSKNALYLQMNSLRAEDTAVYYCARGGPGWYAADVWGQGTTVTVSSASTKGPSVFPLAPSSKSTSGGTAALGCLVKDYFPEPVTVSWNSGALTSGVHTFPAVLQSSGLYSLSSVVTVPSSSLGTQTYICNVNHKPSNTKVDKKV[here human IgG1 Fc with changes without letters]GGGGSGGGGSGGGGSQVQLVQSGAEVKKPGASVKVSCKASGYTFTEYAMHWVRQAPGQGLEWMGGINPNDGGTSYNQKFKGRVTMTVDTSTSTAYMELSSLRSEDTAVYYCASQRWLLRGGDYWGQGTLVTVSSGGSEGKSSGSGSESKSTGGSDVVMTQSPLSLPVTLGQPASISCKSSQSLLDSDGKTYLNWLQQRPGQSPRRLIYLVSKLDSGVPDRFSGSGSGTDFTLKISRVEAEDVGVYYCWQGTHFPQTFGGGTKVEIK
heavy 2: EVRLLESGGGLVQPGGSLRLSCAASGFTFSNYAMGWVRQAPGKGLEWVSAISGSGGSTYYADSVKGRFTTSRDDSKNALYLQMNSLRAEDTAVYYCARGGPGWYAADVWGQGTTVTVSS[here human IgG1 constant region with changes without letters]
light: DIQMTQSPSSLSASVGDRVTITCRASQSISSYLNWYQQKPGKAPKLLIYAASSLQSGVPSRFSGSGSGTDFTLTISSLQPEDFATYYCQQADLPAFAFGGGTKVEIKRTVAAPSVFIFPPSDEQLKSGTASVVCLLNNFYPREAKVQWKVDNALQSGNSQESVTEQDSKDSTYSLSSTLTLSKADYEKHKVYACEVTHQGLSSPVTKSFNRGEC
notes: 2+1
- binding result: binds

B2: TfR9.1B.9 2+1 anti-TfR bispecific antibody (bispecific antibody, human IgG1, kappa)
heavy 1: EVRLLESGGGLVQPGGSLRLSCAASGFTFSNYAMGWVRQAPGKGLEWVSAISGSGGSTYYADSVKGRFTTSRDDSKNALYLQMNSLRAEDTAVYYCARGGPGWYAADVWGQGTTVTVSSASTKGPSVFPLAPSSKSTSGGTAALGCLVKDYFPEPVTVSWNSGALTSGVHTFPAVLQSSGLYSLSSVVTVPSSSLGTQTYICNVNHKPSNTKVDKKV[here human IgG1 Fc with changes without letters]GGGGSGGGGSGGGGSQVQLVQSGAEVKKPGASVKVSCKASGYTFTEYAMHWVRQAPGQGLEWMGGINPNDGGTSYNQKFKGRVTMTVDTSTSTAYMELSSLRSEDTAVYYCASQRWLERGGDYWGQGTLVTVSSGGSEGKSSGSGSESKSTGGSDVVMTQSPLSLPVTLGQPASISCKSSVSLLDSDGKTYLNWLQQRPGQSPRRLIYLVSKLDSGVPDRFSGSGSGTDFTLKISRVEAEDVGVYYCWQGTHFPQTFGGGTKVEIK
heavy 2: EVRLLESGGGLVQPGGSLRLSCAASGFTFSNYAMGWVRQAPGKGLEWVSAISGSGGSTYYADSVKGRFTTSRDDSKNALYLQMNSLRAEDTAVYYCARGGPGWYAADVWGQGTTVTVSS[here human IgG1 constant region with changes without letters]
light: B1 light
notes: 2+1
- binding result: binds

B3: TfR9.1B.10 2+1 anti-TfR bispecific antibody (bispecific antibody, human IgG1, kappa)
heavy 1: EVRLLESGGGLVQPGGSLRLSCAASGFTFSNYAMGWVRQAPGKGLEWVSAISGSGGSTYYADSVKGRFTTSRDDSKNALYLQMNSLRAEDTAVYYCARGGPGWYAADVWGQGTTVTVSSASTKGPSVFPLAPSSKSTSGGTAALGCLVKDYFPEPVTVSWNSGALTSGVHTFPAVLQSSGLYSLSSVVTVPSSSLGTQTYICNVNHKPSNTKVDKKV[here human IgG1 Fc with changes without letters]GGGGSGGGGSGGGGSQVQLVQSGAEVKKPGASVKVSCKASGYTFTEYAMHWVRQAPGQGLEWMGGINPNDGGTSYNQKFKGRVTMTVDTSTSTAYMELSSLRSEDTAVYYCASQGWLLRGGDYWGQGTLVTVSSGGSEGKSSGSGSESKSTGGSDVVMTQSPLSLPVTLGQPASISCKSSQSLLDSDGKTYLNWLQQRPGQSPRRLIYLVSKLDSGVPDRFSGSGSGTDFTLKISRVEAEDVGVYYCWQGTHFPQTFGGGTKVEIK
heavy 2: EVRLLESGGGLVQPGGSLRLSCAASGFTFSNYAMGWVRQAPGKGLEWVSAISGSGGSTYYADSVKGRFTTSRDDSKNALYLQMNSLRAEDTAVYYCARGGPGWYAADVWGQGTTVTVSS[here human IgG1 constant region with changes without letters]
light: B1 light
notes: 2+1
- binding result: binds

B4: TfR9.1B.11 2+1 anti-TfR bispecific antibody (bispecific antibody, human IgG1, kappa)
heavy 1: EVRLLESGGGLVQPGGSLRLSCAASGFTFSNYAMGWVRQAPGKGLEWVSAISGSGGSTYYADSVKGRFTTSRDDSKNALYLQMNSLRAEDTAVYYCARGGPGWYAADVWGQGTTVTVSSASTKGPSVFPLAPSSKSTSGGTAALGCLVKDYFPEPVTVSWNSGALTSGVHTFPAVLQSSGLYSLSSVVTVPSSSLGTQTYICNVNHKPSNTKVDKKV[here human IgG1 Fc with changes without letters]GGGGSGGGGSGGGGSQVQLVQSGAEVKKPGASVKVSCKASGYTFTEYAMHWVRQAPGQGLEWMGGINPNDGGTSYNQKFKGRVTMTVDTSTSTAYMELSSLRSEDTAVYYCASQRWLERGGDYWGQGTLVTVSSGGSEGKSSGSGSESKSTGGSDVVMTQSPLSLPVTLGQPASISCKSSQSLLDSDGVTYLNWLQQRPGQSPRRLIYLVSKLDSGVPDRFSGSGSGTDFTLKISRVEAEDVGVYYCWQGTHFPQTFGGGTKVEIK
heavy 2: EVRLLESGGGLVQPGGSLRLSCAASGFTFSNYAMGWVRQAPGKGLEWVSAISGSGGSTYYADSVKGRFTTSRDDSKNALYLQMNSLRAEDTAVYYCARGGPGWYAADVWGQGTTVTVSS[here human IgG1 constant region with changes without letters]
light: B1 light
notes: 2+1
- binding result: binds

B5: TfR9.1B.14 2+1 anti-TfR bispecific antibody (bispecific antibody, human IgG1, kappa)
heavy 1: EVRLLESGGGLVQPGGSLRLSCAASGFTFSNYAMGWVRQAPGKGLEWVSAISGSGGSTYYADSVKGRFTTSRDDSKNALYLQMNSLRAEDTAVYYCARGGPGWYAADVWGQGTTVTVSSASTKGPSVFPLAPSSKSTSGGTAALGCLVKDYFPEPVTVSWNSGALTSGVHTFPAVLQSSGLYSLSSVVTVPSSSLGTQTYICNVNHKPSNTKVDKKV[here human IgG1 Fc with changes without letters]GGGGSGGGGSGGGGSQVQLVQSGAEVKKPGASVKVSCKASGYTFTEYAMHWVRQAPGQGLEWMGGINPNDGGTHYNQKFKGRVTMTVDTSTSTAYMELSSLRSEDTAVYYCASQRWLLRGGDYWGQGTLVTVSSGGSEGKSSGSGSESKSTGGSDVVMTQSPLSLPVTLGQPASISCKSSRSLLDSDGKTYLNWLQQRPGQSPRRLIYLVSKLDSGVPDRFSGSGSGTDFTLKISRVEAEDVGVYYCWQGTHFPQTFGGGTKVEIK
heavy 2: EVRLLESGGGLVQPGGSLRLSCAASGFTFSNYAMGWVRQAPGKGLEWVSAISGSGGSTYYADSVKGRFTTSRDDSKNALYLQMNSLRAEDTAVYYCARGGPGWYAADVWGQGTTVTVSS[here human IgG1 constant region with changes without letters]
light: B1 light
notes: 2+1
- Kd: 870 nM

B6: TfR9.1B.20 2+1 anti-TfR bispecific antibody (bispecific antibody, human IgG1, kappa)
heavy 1: EVRLLESGGGLVQPGGSLRLSCAASGFTFSNYAMGWVRQAPGKGLEWVSAISGSGGSTYYADSVKGRFTTSRDDSKNALYLQMNSLRAEDTAVYYCARGGPGWYAADVWGQGTTVTVSSASTKGPSVFPLAPSSKSTSGGTAALGCLVKDYFPEPVTVSWNSGALTSGVHTFPAVLQSSGLYSLSSVVTVPSSSLGTQTYICNVNHKPSNTKVDKKV[here human IgG1 Fc with changes without letters]GGGGSGGGGSGGGGSQVQLVQSGAEVKKPGASVKVSCKASGYTFTEYAMHWVRQAPGQGLEWMGGINPNDGGTSYNQKFKGRVTMTVDTSTSTAYMELSSLRSEDTAVYYCASQRWLQRGGDYWGQGTLVTVSSGGSEGKSSGSGSESKSTGGSDVVMTQSPLSLPVTLGQPASISCKSSQSLLDSDGKTYLNWLQQRPGQSPRRLIYLVSKLDSGVPDRFSGSGSGTDFTLKISRVEAEDVGVYYCWQGTKFPQTFGGGTKVEIK
heavy 2: EVRLLESGGGLVQPGGSLRLSCAASGFTFSNYAMGWVRQAPGKGLEWVSAISGSGGSTYYADSVKGRFTTSRDDSKNALYLQMNSLRAEDTAVYYCARGGPGWYAADVWGQGTTVTVSS[here human IgG1 constant region with changes without letters]
light: B1 light
notes: 2+1
- binding result: binds
